{
  "source": "PubChem BioAssay AID1346428",
  "about": "(National Center for Advancing Translational Sciences (NCATS), 2018)",
  "note": "“And” between values parts separate entries of the source, which are not always exact repeats. Equal values may be shown once. Screen size: about 48,000 compounds; about 1,200 (2.5%) were called active. Another 2% or so got no clear call; they are omitted.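 How the source made its calls: active means activation of at least 60% and not above a set upper limit (about 1 call in 100 departs from these limits); inconclusive means activation of 40% to 60%, or above that upper limit; inactive means activation under 40%.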 The list shows a part of the results.",
  "data": [
    {"target": "Probable G-protein coupled receptor 32 (Homo sapiens) (UniProt O75388)", "sequence (O75388 whole entry, looked up)": "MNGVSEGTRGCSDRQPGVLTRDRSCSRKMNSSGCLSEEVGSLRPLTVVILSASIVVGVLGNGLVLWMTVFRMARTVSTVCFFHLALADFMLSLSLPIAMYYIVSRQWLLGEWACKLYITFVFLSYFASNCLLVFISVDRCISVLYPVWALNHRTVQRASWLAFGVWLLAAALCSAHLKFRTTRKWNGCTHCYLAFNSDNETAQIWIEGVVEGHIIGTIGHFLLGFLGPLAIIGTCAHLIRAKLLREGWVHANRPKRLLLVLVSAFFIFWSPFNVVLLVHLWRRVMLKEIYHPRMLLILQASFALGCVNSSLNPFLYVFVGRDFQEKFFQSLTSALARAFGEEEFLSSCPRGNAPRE", "test": "qHTS for Agonists of Human Resolvin D1 Receptor DRV1; further: 0% is about no effect", "settings": "CHO-K1 GPR32 beta-arrestin PathHunter luminescence, 90 min; at 76.9 µM; active compounds read high; zero percent set by DMSO-only wells", "procedure,_shortened": "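Step 1: seed CHO-K1 GPR32 beta-arrestin cells, 2,500/well, overnight at 37 °C. Step 2: add compounds, 90 min at 37 °C. Step 3: detection reagent, 1 h ambient, then luminescence.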", "values": [
      {"smiles": "COc1ccc(C)cc1NC(=O)C(=O)NCCc1sc(-c2ccc(Cl)cc2)nc1C", "activation": "inactive: 12.9%"},
      {"smiles": "Cc1ccccc1-c1nnc(CN2CCN(c3cc(Cl)ccc3C)CC2)o1", "activation": "inactive: -12.7%"},
      {"smiles": "CCOC(=O)c1c(S(=O)(=O)N2CCC(C(=O)N3CCN(c4cccc(C)c4C)CC3)CC2)c(C)n(C)c1C", "activation": "inactive: 15%"},
      {"smiles": "CCC(CC)C(=O)Nc1cc(-c2cn3cccnc3n2)ccc1OC", "activation": "inactive: -12.8%"},
      {"smiles": "CCOc1ccccc1C1N=C(N)Nc2nc3ccccc3n21", "note": "(stereo unspecified)", "activation": "inactive: -7.59%"},
      {"smiles": "Cc1nc(N2CCCC2)c2c(C(=O)Nc3ccc(C)c(Cl)c3)c(C)oc2n1", "activation": "inactive: -25.3%"},
      {"smiles": "O=C(CSc1nnc(COc2ccc(Cl)cc2)o1)Nc1ccccc1", "activation": "inactive: -2.89%"},
      {"smiles": "CCOc1ccc(C(=O)Nc2c(C(=O)c3ccccc3)oc3ccccc23)cc1", "activation": "inactive: -8.12%"},
      {"smiles": "COc1ccc(C(CC(=O)Nc2ccc(C)cn2)N2Cc3ccccc3C2=O)cc1OC", "note": "(stereo unspecified)", "activation": "inactive: -8.11%"},
      {"smiles": "COC(=O)c1c(C)oc2ccc(N(C(=O)c3ccncc3)S(=O)(=O)c3cc(C)c(C)cc3C)cc12", "activation": "inactive: -1.44%"},
      {"smiles": "CCOC(=O)N1CCC(NC(=O)c2ccc3c(c2)N(Cc2cccc(C)c2)C(=O)c2ccccc2S3(=O)=O)CC1", "activation": "inactive: -9.39%"},
      {"smiles": "COc1ccc(NC(=O)COCc2cc(-c3ccco3)on2)cc1", "activation": "inactive: -8.87%"},
      {"smiles": "CCCCSc1nnc2n(-c3cccc(C)c3)c(=O)c3c4c(sc3n12)CCCC4", "activation": "inactive: -9.97%"},
      {"smiles": "CC(=O)Nc1nonc1-c1nnc(SCc2ccc(F)cc2)n1C", "activation": "inactive: -5.49%"},
      {"smiles": "CCOC(=O)C1CCN(C(=O)CSc2n[nH]c(-c3ccccc3)n2)CC1", "activation": "inactive: -10.9%"},
      {"smiles": "Cc1cccc(OCc2nc(C#N)c(NCc3ccccc3Cl)o2)c1", "activation": "inactive: 45.5%"},
      {"smiles": "Cc1ccc2nc(COc3ccc(NC(=O)COc4ccccc4F)cc3)cc(=O)n2c1", "activation": "inactive: -1.49%"},
      {"smiles": "COc1ccc(NC(=O)CSc2nc3ccccc3[nH]2)cc1", "activation": "inactive: -10%"},
      {"smiles": "Fc1ccccc1Oc1ncnc2c1oc1ccccc12", "activation": "inactive: -4.36%"},
      {"smiles": "Clc1ccc(-c2csc(=Nc3ccccc3)n2Cc2ccc3c(c2)OCO3)cc1", "activation": "inactive: -6.37%"},
      {"smiles": "CCCCC(CC)CNC(=O)CCCc1nnc2n(CCC)c(=O)c3sccc3n12", "note": "(stereo unspecified)", "activation": "active: 80.4%"},
      {"smiles": "Cc1ccc(NC(=O)CSCn2nnc3c(=O)[nH]c(Cc4ccc(F)cc4)nc32)c(C)c1", "activation": "inactive: -7.57%"},
      {"smiles": "Cc1ccc(C)c(N2CCN(C(=O)Cn3c(=O)c4cccn4c4ccc(F)cc43)CC2)c1", "activation": "inactive: -15%"},
      {"smiles": "Cc1cc(C)c2nc(NC(=O)c3ccc(S(=O)(=O)N4CCCC4)cc3)sc2c1", "activation": "inactive: 10.8%"},
      {"smiles": "COc1ccc(-c2cc3nc(C)c(CCC(=O)N4CCN(c5ccccc5)CC4)c(C)n3n2)c(OC)c1", "activation": "inactive: 2.04%"},
      {"smiles": "Cc1c(CC(=O)NCc2ccccc2)c(=O)oc2c(C)c(O)ccc12", "activation": "inactive: 31.7%"},
      {"smiles": "Cc1cccc(N2CCN(C(=O)c3ccc4c(c3)N(Cc3ccccc3F)C(=O)c3ccccc3S4=O)CC2C)c1", "note": "(stereo unspecified)", "activation": "inactive: 6.83%"},
      {"smiles": "COc1cc2c(=O)c(C(=O)c3ccc(C)c(C)c3)cn(Cc3ccccc3)c2cc1OC", "activation": "inactive: 6.72%"},
      {"smiles": "CCOc1cc(C2C(C(=O)OC)=C(C)NC3=C2C(=O)c2ccccc23)c(Br)cc1OC", "note": "(stereo unspecified)", "activation": "inactive: -21.3%"},
      {"smiles": "CCOCCCNC(=O)Cn1nc(C)n2c(cc3cc(C)ccc32)c1=O", "activation": "inactive: -1.49%"},
      {"smiles": "CCCCN(CCCNC(=O)CN1N=C(c2ccccc2)CCC1=O)c1ccccc1", "activation": "inactive: -33.2%"},
      {"smiles": "O=C(COc1ccccc1Cl)Nc1nc2c(s1)CCCC2", "activation": "inactive: -21.1%"},
      {"smiles": "COc1cccc(C(=O)Nc2cc(-c3cn4cccnc4n3)ccc2C)c1OC", "activation": "inactive: 18%"},
      {"smiles": "Cn1ncc(S(=O)(=O)Cc2ccccc2)c(Br)c1=O", "activation": "inactive: -3.54%"},
      {"smiles": "Cc1nc2ccccn2c(=O)c1NC(=O)c1c(F)cccc1F", "activation": "inactive: -4.81%"},
      {"smiles": "CC1CCN(C(=O)c2c(NC(=O)c3ccccc3F)sc3c2CCC(C(C)(C)C)C3)CC1", "note": "(stereo unspecified)", "activation": "inactive: -24.7%"},
      {"smiles": "Cc1ccc(OCC(=O)Nc2ccccc2C(=O)OCc2cc(=O)n3nc(C4CC4)sc3n2)cc1", "activation": "inactive: -6.6%"},
      {"smiles": "O=C(c1cccs1)N(Cc1cccnc1)c1nc2ccc(F)cc2s1", "activation": "inactive: -20.6%"},
      {"smiles": "Cc1ccc(CN(Cc2ccco2)C(=O)COc2c(C)cc(C)cc2C)cc1", "activation": "inactive: 8.73%"},
      {"smiles": "CCCN(CCC)CCCNC(=O)C1CCC(CNS(=O)(=O)c2cccc3nsnc23)CC1", "note": "(stereo unspecified)", "activation": "inactive: -1.03%"},
      {"smiles": "CNCCCC12CCC(c3ccccc31)c1ccccc12", "activation": "inactive: 43.5% and inactive: -11%"},
      {"smiles": "CCn1cc(S(=O)(=O)c2ccc(OC)cc2)c(=O)c2cc(F)c(N3CCC(C)CC3)cc21", "activation": "inactive: -7.23%"},
      {"smiles": "CCCCNS(=O)(=O)c1ccc2nc(-c3cccnc3)cc(C(=O)NCCC)c2c1", "activation": "inactive: -13%"},
      {"smiles": "Oc1ccc(-c2nc3ccccn3c2Nc2ccc3c(c2)OCCO3)cc1", "activation": "inactive: -12.4%"},
      {"smiles": "COCCCNC(=O)c1ccc2nc(Cc3ccc(OC)cc3)oc2c1", "activation": "inactive: -10.1%"},
      {"smiles": "NCCCCCc1nnc(SCc2ccc(F)cc2)o1", "activation": "inactive: -2.7%"},
      {"smiles": "NCCNc1cccc2ccccc12", "activation": "inactive: -12.5%"},
      {"smiles": "CCCc1nn2c(=O)cc(COC(=O)c3cccc(NC(=O)CCc4ccccc4)c3)nc2s1", "activation": "inactive: -5.88%"},
      {"smiles": "COCCNC(=O)CSc1c2c(nc3cc(Cl)ccc13)CCCC2", "activation": "inactive: -9.55%"},
      {"smiles": "CCOc1ccc(CNC(=O)C2CCN(S(=O)(=O)N3CCCCC3)CC2)cc1", "activation": "inactive: 0.0153%"},
      {"smiles": "CCOCCCNC(=O)C(c1ccc(OC)cc1)N(Cc1cccs1)C(=O)c1ccccc1O", "note": "(stereo unspecified)", "activation": "inactive: -10.2%"},
      {"smiles": "COc1ccc(CCNC(=O)c2cnc3sc(N4CCCCCC4)nn3c2=O)cc1OC", "activation": "inactive: 0.321%"},
      {"smiles": "CC1=C(C(=O)Nc2cccc(C)c2C)C2(CCCCC2)OC1=O", "activation": "inactive: -19.7%"},
      {"smiles": "CC1=C(C(=O)Nc2c(C)cc(C)cc2C)C2(CCN(C(C)C)CC2)OC1=O", "activation": "inactive: -9.46%"},
      {"smiles": "CC(C)NC(=O)CSc1nc2ccccc2nc1N1CCCCC1", "activation": "inactive: 12.9%"},
      {"smiles": "COc1ccccc1N1CCN(CCCNC(=O)c2cnn(-c3ccccc3Cl)c2C2CCN(C(=O)OC(C)(C)C)CC2)CC1", "activation": "inactive: -18.9%"},
      {"smiles": "Cc1ccc(Sc2ccc(N3CCCC(C(=O)Nc4ccc(Cl)cc4)C3)nn2)cc1", "note": "(stereo unspecified)", "activation": "inactive: 23.3%"},
      {"smiles": "CC(C)CCN1C(=O)N(c2ccccc2)C(=O)C1CC(=O)Nc1ccc(Cl)cc1", "note": "(stereo unspecified)", "activation": "inactive: -19.9%"},
      {"smiles": "COc1cc(OC)c(NC(=O)Nc2nnc(N(C)C3CCCCC3)s2)cc1Cl", "activation": "inactive: 0.158%"},
      {"smiles": "CCOc1cccc2sc(N(Cc3cccnc3)C(=O)c3ccco3)nc12", "activation": "inactive: -6.64%"},
      {"smiles": "Cc1ccc(N2CC(NC(=O)Cc3cccs3)CC2=O)cc1", "note": "(stereo unspecified)", "activation": "inactive: -5.37%"},
      {"smiles": "COc1ccc(C(c2c(C)n(C)n(-c3ccccc3)c2=O)c2c(C)n(C)n(-c3ccccc3)c2=O)cc1O", "activation": "inactive: -3.81%"},
      {"smiles": "COc1ccc(-c2cc3c(=O)n(CC(=O)Nc4ccccc4C(F)(F)F)ccn3n2)cc1OC", "activation": "inactive: 29.5%"},
      {"smiles": "CC1CCN(CC(=O)N2CCCc3c2c(=O)oc2ccc(OCc4ccccc4)cc32)CC1", "activation": "inactive: 19.8%"},
      {"smiles": "CC(=O)c1ccc(NC(=O)CN(C)S(=O)(=O)c2cc3c(cc2C)NC(=O)CO3)cc1", "activation": "inactive: -3.18%"},
      {"smiles": "Cc1c(C(=O)Nc2ccc(Br)cc2F)oc2ccc(S(=O)(=O)N3CCCCC3)cc12", "activation": "inactive: 4.09%"},
      {"smiles": "Cc1ccc(CCNC(=O)c2cc3c(s2)-c2ccccc2OC3)cc1", "activation": "inactive: 8.69%"},
      {"smiles": "Cc1cccc(NC(c2cccc(F)c2)c2ccc3ccc(C)nc3c2O)n1", "note": "(stereo unspecified)", "activation": "inactive: -51.3%"},
      {"smiles": "NCCNCCNCCN", "activation": "inactive: 3.97%"},
      {"smiles": "CCCn1c(=N)c(C(=O)NC2CCCC2)cc2c(=O)n3cc(C)ccc3nc21", "activation": "inactive: -4.65%"},
      {"smiles": "CC1CCC(NC(=O)c2ccc3c(c2)N(Cc2ccccc2F)C(=O)c2ccccc2S3)CC1", "note": "(stereo unspecified)", "activation": "inactive: -14.2%"},
      {"smiles": "CC1CCN(S(=O)(=O)c2ccc3c(c2)N(CC(=O)NCc2ccccc2Cl)C(=O)CS3)CC1", "activation": "inactive: -29.3%"},
      {"smiles": "Cc1nc2ccc(S(=O)(=O)NC(C(=O)NCc3ccccc3Cl)C(C)C)cc2s1", "note": "(stereo unspecified)", "activation": "inactive: 7.27%"},
      {"smiles": "c1ccc(-c2cc(-c3ccccc3)c3c(n2)-c2ccccc2OC3)cc1", "activation": "inactive: 10.3%"},
      {"smiles": "O=S(=O)(Nc1ccc(F)c(C(F)(F)F)c1)c1ccc(N2CCCCS2(=O)=O)cc1", "activation": "inactive: 9.53%"},
      {"smiles": "COc1ccc(C2C(=O)N(C3CCC(C)CC3)CC(=O)N2Cc2ccc(C)cc2)cc1OC", "note": "(stereo unspecified)", "activation": "inactive: -29.8%"},
      {"smiles": "CSc1ncc(Cl)c(C(=O)NCc2ccc(C)cc2)n1", "activation": "inactive: -1.65%"},
      {"smiles": "CCCCNc1ccc(-c2nc(-c3ccccc3)no2)cc1[N+](=O)[O-]", "activation": "inactive: -15%"},
      {"smiles": "O=C(Nc1cccc(C(F)(F)F)c1)C1CCCN(S(=O)(=O)c2cccc3nsnc23)C1", "note": "(stereo unspecified)", "activation": "inactive: -3.72%"},
      {"smiles": "Cc1ccc2c(CC(=O)N3CCN(c4cccc(Cl)c4)CC3)coc2c1", "activation": "inactive: -24.8%"},
      {"smiles": "Cc1cc(C)cc(NC(=O)Cn2nnc(C(=O)NCCc3ccccc3)c2N)c1", "activation": "inactive: 1.1%"},
      {"smiles": "COc1ccc(OC)c(CNS(=O)(=O)c2c(C(=O)N3CCC(C)CC3)c(C)n(C)c2C)c1", "activation": "inactive: -17%"},
      {"smiles": "CCOc1ccc(C(=O)NCCc2sc(-c3ccc(C)cc3)nc2C)cc1", "activation": "inactive: 41.4%"},
      {"smiles": "Cc1ccc(CCNC(=O)c2ccc(CS(=O)(=O)c3ccc(Br)cc3)o2)cc1", "activation": "inactive: 34.8%"},
      {"smiles": "CCOc1ccccc1NC(=O)CSc1c(C)cnc2c1c(=O)n(C)c(=O)n2C", "activation": "inactive: -4.76%"},
      {"smiles": "COc1cc(Nc2nc(SCc3ccccc3F)nc3ccccc23)cc(OC)c1", "activation": "inactive: -28.2%"}
    ]}
  ]
}
